# Assay results published in paper PMC12136788.
# The list shows a part of the results.
# B1: chr6:114281168:114281169:-_ENSG00000196591_ENST00000368632|hu_hu|motif|central (ssRNA)
# RNA: GGGAGUUCUACAGUCCGACGAUCUUCCAUUUUUCUGUAUAAGCCAUAAUUUAACAGCAAGUUAUGGGUCAUGCGGAUUCGGUGAGGCUUCAUGGGAUGACCCUGUCCAUAAUAAUAAUUUCCAAUAUCACAGAUUCACUAGAACAACAGAGGAUUGAGCAUCA
# B2: 180451576_180451696_634_3pUTR_ENSMUSG00000027573_ENSMUST00000029090|mouse|control|control (ssRNA)
# RNA: GGGAGUUCUACAGUCCGACGAUCGCAAGGCCAGUGUGCGCUCCAUCUCUGUGAGGCAUUCUCGGCUUUCCUCACCCUGCUCUGCCAGUUGUGUCUGGGCAAACUCCAAUGCUGCUUCUGUCUCACGCUGACGGAUAAGCUCAACAACAGAGGAUUGAGCAUCA
# B3: chrX:119742084:119742085:+_ENSG00000232119_ENST00000371317|hu_mus|FALSE|FALSE (ssRNA)
# RNA: GGGAGUUCUACAGUCCGACGAUCAAAAGGAUAUUUAUGAAGUAAUCUUAAAGUUGGAUAAAAAGGCCCUUCUCUUUGUCUAAAAAACAGUAAUUCUCCAUUUACUGUAAGGAUUUCUAUGUGUUCAUGGCAUCGGACAAUUUUCAACAGAGGAUUGAGCAUCA
# B4: chr1:130485734:130485735:-_ENSMUSG00000045382_ENSMUST00000052172|mus_mus|mus_mus_mus_hu_False|78_88 (ssRNA)
# RNA: GGGAGUUCUACAGUCCGACGAUCGAUGAAGGAGUCGAUGCUGAUCCCCACAUAAUAUGGCAGCCAGCAGGCGAAGAAAGCCAGGAUGAGGAUGACUGUGGUCUUGAGGGCCUUGCGCUUCUGGUGGCCCUUGGAGUGUGACAGCAACAGAGGAUUGAGCAUCA
# B5: 194672613_194672733_1323_3pUTR_ENSMUSG00000016262_ENSMUST00000016406|mouse|control|control (ssRNA)
# RNA: GGGAGUUCUACAGUCCGACGAUCGCUCCUUUUUCCUCAAAGACUUUUUCCAAGACUCACUCACACGGUUUCUCUCAUUAUAUCCAGUCUCAAAAUAAUCGUAAAAUUGGCCUUUGCACUCAAAAUCAAGGUCGUUCCCCACAGCAACAGAGGAUUGAGCAUCA
# B6: chr8:74858975:74858976:-_ENSG00000154582_ENST00000284811|hu_mus|hu_hu_hu_mus_True|18_68 (ssRNA)
# RNA: GGGAGUUCUACAGUCCGACGAUCGACCUUGUAGGUAAAAUACAUGCACACUUUUGAUAGCACAUGUGAAGGUAUCUCUCUAAAAUUGACCUCGUUGGUUUCAUUCUCAGCAAACUGACCUGGGCCACUCAACAUAGCCUUUAUCAACAGAGGAUUGAGCAUCA
# B7: 31022552_31023692_238_3pUTR_ENSMUSG00000000194_ENSMUST00000056433|mouse|control|control (ssRNA)
# RNA: GGGAGUUCUACAGUCCGACGAUCGAAUCCGAUCUCAGCAUCCUUGUCCGUGGCUCCCUCAGGCUCGUUCACAGAGAGGCUGCUGACGUUGACCACCAUGUACCCAUCCUUGAAGAACCCGAAGGUGUUGAGAUGGACUUUAUGCAACAGAGGAUUGAGCAUCA
# B8: chrX:114877694:114877695:+_ENSG00000102024_ENST00000355899|hu_mus|motif|central (ssRNA)
# RNA: GGGAGUUCUACAGUCCGACGAUCGUUCAGUUUGGGGUUUCCGCUGACAACAUCAGCUGGAGUAACGAACUGUCUGCAACCGGAUUUAUCUGCUUGUUGAAGCAUACUUUCGGCUCUCUUUAAAUCAUCAGUUUCAUUGAAACCCAACAGAGGAUUGAGCAUCA
# B9: 61661049_61662668_991_CDS_ENSG00000136485_ENST00000310827|human|control|control (ssRNA)
# RNA: GGGAGUUCUACAGUCCGACGAUCUGAAUGUGGGGCCCAAGCAAUGCCAUUGACACAUGCUCGAUGGUUGUUUAACCUGGCGACAGGUGUGCAGGGAACCCGGACAUCUAGAAUCACCACCUCCAUUCCAUCCAUGGCCAUGGUCAACAGAGGAUUGAGCAUCA
# B10: chr12:45699863:45699864:+_ENSMUSG00000020598_ENSMUST00000020939|mus_mus|motif|central (ssRNA)
# RNA: GGGAGUUCUACAGUCCGACGAUCUGCAGCAUGUCUCAUGCAUCGUAUUGAACUGGAUCCCGCACAGGGAAUAAUGUAAUCGGUUGAUGAUGUUGUAUUUCUUUUUAAUCAGUUCCAAGGAAAUUGAGAAAAACCCCACUCUGACAACAGAGGAUUGAGCAUCA
# B11: chr1:59925254:59925255:+_ENSMUSG00000067336_ENSMUST00000087435|mus_mus|motif|central (ssRNA)
# RNA: GGGAGUUCUACAGUCCGACGAUCAUCUUGUUCUGAACAUGGAUUGCUGUUGUUGUUAUUGGAAUUUGUUCGGCCACCUUCGGAUGGCCGUUCCCUCCUAUCUACCAAACGAUCCAGAACCCCUUCAUCAUGGCCAGCCUGUUGCAACAGAGGAUUGAGCAUCA
# B12: chr6:38652254:38652255:-_ENSG00000124767_ENST00000373365|hu_hu|motif|central (ssRNA)
# RNA: GGGAGUUCUACAGUCCGACGAUCUGAAAACUUCAUAAUGGGAAAAUCACAUUUUUGGAUUAGCGUCAUUCCAAGAACUCGGGUAUAAAAAUCCAGUGACUUCUUAGGAUCCUUCACUCGUAGCAUGGUCUGCUGCAAUAGAAACAACAGAGGAUUGAGCAUCA
# B13: 406267_416132_4476_CDS_ENSG00000073614_ENST00000399788|human|control|control (ssRNA)
# RNA: GGGAGUUCUACAGUCCGACGAUCCCACAUGUGGGUCACCACCUCCUCGGAUUUGAUGGGAAUCUCUUCAUCACAAAAAAGAUUGGGUUCAAGACUACUAGAGGACUUCACACUGGCUGUGUCCUUCAUGUCGUAGCCAUAUGUCAACAGAGGAUUGAGCAUCA
# B14: 164712118_164712570_1168_3pUTR_ENSMUSG00000039849_ENSMUST00000041643|mouse|control|control (ssRNA)
# RNA: GGGAGUUCUACAGUCCGACGAUCGGGGAUGCACUCCUGGACUCAAUGAGCCGCCUGGCAGCUUCUGCGUAUUUAAAGAGCAGGCGUUUGGCUUCCUCCCGGAACUUGAUUCGGGAUAACCUGAUGGGAAUGUCAUUCAUAAUUCAACAGAGGAUUGAGCAUCA
# B15: chr4:4237396:4237397:-_ENSG00000132406_ENST00000382753|hu_hu|FALSE|FALSE (ssRNA)
# RNA: GGGAGUUCUACAGUCCGACGAUCUAAAACUUCACAUUAGGAAAUGCUAAAAACCCAGUAAUGUACAUAAUGAUAAAAUCUAAAGUGAUGAGAAAACAUAAAAUAUUUUCAUUUGGUCCUGUCACCUAACAAAACUAUCAUAAACAACAGAGGAUUGAGCAUCA
# B16: 19496024_19497373_3613_CDS_ENSG00000127481_ENST00000375254|human|control|control (ssRNA)
# RNA: GGGAGUUCUACAGUCCGACGAUCACCCAGAGUAUUUGCCUUGCACCUGCUAGAGCCAAUAGCCAAAACAGCAGCAAAGCCUUGCAGUUUCUCCUUGGAAGGUUUCUCAGUUGUUCCCUCUUCAUUAAAGUUUUGCAGCAAAUACAACAGAGGAUUGAGCAUCA
# B17: chr4:106720893:106720894:+_ENSMUSG00000061887_ENSMUST00000030367|mus_mus|FALSE|FALSE (ssRNA)
# RNA: GGGAGUUCUACAGUCCGACGAUCAAACCAACAAAAAGUGUCAUGUACAGAAAGGUCCUUUUGGGCGGGAAGAAGGUGAGAGUUUUCUGGCCGUUGACUUGAAAUAUAUUUUUGAGUUUUGUCCUUCAUGUUUUACGGAAUAAACAACAGAGGAUUGAGCAUCA
# B18: chr7:107985766:107985767:+_ENSMUSG00000029461_ENSMUST00000049053|mus_hu|motif|central (ssRNA)
# RNA: GGGAGUUCUACAGUCCGACGAUCCCCUAGGUAAAUUUUUGUAAGCAAGGUGCCCACUAGGUAGGAAGGCUGCAUUUAAUGCGGAUUUACUGUAAGGUCUAGGGAAGUCCUUUCCGCUUCUCUGGGCCUCAGUUUCCUCAUCUGCAACAGAGGAUUGAGCAUCA
# B19: chr16:20935853:20935854:+_ENSG00000102897_ENST00000219168|hu_hu|FALSE|FALSE (ssRNA)
# RNA: GGGAGUUCUACAGUCCGACGAUCAAGGGUCAAAAGACAACAAAAAAGCACACACCAAAAAACCUCACUUUAAGCAAAUCUAUAACUUGAAAAAAAAAAAGCCUAAGAAUAUUCUGAGAGUGGUACAUAGUUUUAUAGUAGCCACAACAGAGGAUUGAGCAUCA
# B20: chrX:140365796:140365797:-_ENSMUSG00000031285_ENSMUST00000033642|mus_mus|mus_mus_mus_hu_False|1_78 (ssRNA)
# RNA: GGGAGUUCUACAGUCCGACGAUCCUUCUCAUUACUCAGUGCCUGCAAGGUUCUGGUUCUGUAGAAGCUACAGUGGGCGCUGUGAGUGGGGCUAGGCAACCCAUUCAUCCGGGAGCCUCGCAUGUUCCUGGAUGUCUUGUCUCGCAACAGAGGAUUGAGCAUCA
# B21: chr3:139075876:139075877:+_ENSG00000175110_ENST00000310776|hu_mus|FALSE|FALSE (ssRNA)
# RNA: GGGAGUUCUACAGUCCGACGAUCCCAAGAUUUUUAAAUGUUCAGCUUAGUAUUACCAAAAUGGAAGGGCAUUACUAUGAAAUGUGUUUUUAACUGUUCUCAGGAUGCUGCGGAAUGACUGGUAACUAUUUCUUGAUAAGUUUGCAACAGAGGAUUGAGCAUCA
# B22: chr11:87794976:87794977:-_ENSMUSG00000020483_ENSMUST00000020775|perfect_dup|FALSE|FALSE (ssRNA)
# RNA: GGGAGUUCUACAGUCCGACGAUCGCAACGCCGCCUGCUUGCCAUCGCUGCCGCCGCCACGGACACCUUCGCCUCGGCCACCUAGCCCGACUUGAAGAGGAGGAUUGCAACUUGACCCAAGUAAAAAUAGAUGAAGUGCUUUGUCAACAGAGGAUUGAGCAUCA
# Biological target: T1, UNK ZnF1-3 (human, UniProt Q9C0B0 31-174)
# T1 sequence: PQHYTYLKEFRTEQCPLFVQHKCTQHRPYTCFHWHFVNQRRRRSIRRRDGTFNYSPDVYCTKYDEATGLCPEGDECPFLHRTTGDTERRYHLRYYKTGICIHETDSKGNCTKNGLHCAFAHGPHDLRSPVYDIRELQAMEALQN
# Test: nsRBNS (natural sequence RNA bind-n-seq); RBNS binding buffer (assumed for nsRBNS): 25 mM Tris pH 7.5, 150 mM KCl, 3 mM MgCl2, 0.01% Triton X-100, 500 ug/ml BSA, 20 U/ml SUPERase-In, 4 C; UNK is unkempt and MSI1 is Musashi-1; names of the RNAs are library labels; protein concentration not given here; high values mean tight binding
row,Binder,binding signal
1,B1,1.07 enrichment R
2,B2,0.654 enrichment R
3,B3,0.58 enrichment R
4,B4,1.26 enrichment R
5,B5,1.19 enrichment R
6,B6,0.594 enrichment R
7,B7,0.392 enrichment R
8,B8,0.485 enrichment R
9,B9,0.757 enrichment R
10,B10,1.32 enrichment R
11,B11,0.592 enrichment R
12,B12,0.51 enrichment R
13,B13,1.02 enrichment R
14,B14,0.859 enrichment R
15,B15,0.724 enrichment R
16,B16,1.06 enrichment R
17,B17,1.41 enrichment R
18,B18,0.778 enrichment R
19,B19,2.03 enrichment R
20,B20,0.463 enrichment R
21,B21,1.24 enrichment R
22,B22,1.94 enrichment R
